# Experimental data as given in the supplement of paper PMC3334620.
# Whole data set: some 33,000 sequences, median “E-score (-0.5 to 0.5)” near -0.036, cut for the highest 2% near 0.37. The list shows a part of the results.
# Molecular target: T1, Yer064c (UniProt P40041)
# T1 sequence: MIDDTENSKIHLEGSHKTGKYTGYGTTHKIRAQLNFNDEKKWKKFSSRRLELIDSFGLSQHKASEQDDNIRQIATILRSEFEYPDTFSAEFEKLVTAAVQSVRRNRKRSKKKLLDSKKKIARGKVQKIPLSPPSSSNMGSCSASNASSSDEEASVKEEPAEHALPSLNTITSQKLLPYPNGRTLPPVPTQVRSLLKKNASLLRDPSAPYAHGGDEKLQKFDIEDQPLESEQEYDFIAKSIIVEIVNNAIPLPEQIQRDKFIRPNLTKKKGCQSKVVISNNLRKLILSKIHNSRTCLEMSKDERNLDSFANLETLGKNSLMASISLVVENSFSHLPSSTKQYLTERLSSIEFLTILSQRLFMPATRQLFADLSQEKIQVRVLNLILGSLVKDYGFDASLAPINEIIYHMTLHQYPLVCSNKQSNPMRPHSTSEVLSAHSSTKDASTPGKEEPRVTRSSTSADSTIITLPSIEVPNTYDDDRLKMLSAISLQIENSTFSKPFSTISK
# Assay: PBM E-score (8-mer binding enrichment) (E-score (-0.5 to 0.5)); higher = stronger / more preferred TF binding; most listed sequences are background and not binding sites
# Details: protein concentration: 200 nM; construct: GST-full length
# Method in brief: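 GST-tagged yeast TFs (full-length or DNA-binding domain) were made by PURExpress in vitro transcription/translation and applied at about 100-200 nM to universal all-10-mer Agilent arrays. The arrays were made double-stranded by primer extension, on fresh or once-stripped slides. Bound protein was detected with fluorescent anti-GST, and scans were normalised with masliner. Each ungapped eight-base word, pooled with its reverse complement, received an E-score (modified Wilcoxon-Mann-Whitney statistic) from the Universal PBM Analysis Suite.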
row,Sequence,PBM E-score
1,ACGGAGCC,-0.196
2,AGGCGTAC,-0.101
3,CCTAATGC,-0.108
4,ATCTAAAA,0.187
5,CTGATAAC,-0.0031
6,CGCACTCC,-0.217
7,AATTTTTC,-0.194
8,ACCCGAAT,-0.106
9,AACAAGTT,-0.0663
10,AGTGCAGA,-0.116
11,AAAACCGC,-0.129
12,AGTACAGC,0.099
13,ACTCCTCA,0.127
14,AGGTCGTA,0.0488
15,AAACTCCA,-0.104
16,ATACAATC,0.0424
17,ACGACTAG,0.359
18,CGCCCGCC,-0.298
19,ACGGGGCG,-0.00076
20,CACGACGC,-0.163
21,CATGGCGC,-0.154
22,CGCATCCG,-0.0541

row,Sequence,PBM E-score
1,ATCCATTA,-0.0339
2,AGATTTGC,-0.0937
3,AACGCATG,-0.0766
4,ATACATCG,0.0545
5,ATCGCCAA,-0.198
6,ACCATGCG,0.0519
7,GGGTCGCA,-0.111
8,ATGTCCTC,-0.173
9,CATTGGTA,-0.0834
10,GCTCTTGA,0.0196
11,CGCCTATC,-0.0992
12,CGTGTGGC,-0.144
13,ACTACCAG,0.0404
14,AGTCATGG,0.479
15,CTCACACC,0.0863
16,AGAGAATG,-0.0113
17,AATAAAGT,0.0508
18,GCTATGCC,-0.25
19,CCCTGCTA,-0.233
20,TCTATCAA,-0.0163
21,TGATTACA,0.41
22,AGCTACTG,0.0619

row,Sequence,PBM E-score
1,TAACGCCA,-0.22
2,ATGCCTAG,-0.105
3,CAACCTCC,-0.123
4,ATCAAGAA,0.147
5,AGTATCCA,-0.0187
6,ACCCCTAT,-0.0553
7,AAGATGAA,0.0255
8,CGACCTGC,-0.24
9,GTCAACGA,0.267
10,CGATGTGC,0.0961
11,CAGTGTGA,0.211
12,GATGGCCA,-0.214
13,ACTCCCAC,0.02
14,TGATACAA,0.141
15,GTGCGTTA,-0.142
16,ACCATTCT,-0.0647
17,GACAGGAA,-0.0294
18,CACCCTGA,0.171
19,CTGCGCAA,0.025
20,CGATCCGA,-0.151
21,CACCCTCC,0.0286
22,TAACTACA,0.113

row,Sequence,PBM E-score
1,CAAAACAC,-0.0046
2,ACGTAGAG,0.0083
3,CTGTATGA,0.146
4,AACGAGCT,-0.0899
5,AAACCTTC,-0.0157
6,GATTGTTA,0.218
7,CCAGTAGC,-0.191
8,CCTCAGCG,-0.182
9,CCCGACTC,0.389
10,AGTGGAAG,-0.16
11,ATGAACTG,0.0739
12,GGACTTCA,-0.00459
13,CGTAGCAG,-0.0495
14,ACTTGGCA,-0.0478
15,GTTCTCAA,0.131
16,AGCCTATG,-0.0712
17,GATGGACC,-0.215
18,CGACGCAC,-0.114
19,ACTTCGCG,0.0575
20,ACTACAAG,0.224
